From the supplement of paper PMC12217912
The list shows a part of the results. The full chains were built here from the parent and the listed change. Inactive controls read about 0.05.

B1: TEV protease; numbered along this chain (parent)
chain: MGESLFKGPRDYNPISSSICHLTNESDGHTTSLYGIGFGPFIITNKHLFRRNNGTLVVQSLHGVFKVKDTTTLQQHLVDGRDMIIIRMPKDFPPFPQKLKFREPQREERICLVTTNFQTKSMSSMVSDTSCTFPSGDGIFWKHWIQTKDGQCGSPLVSTRDGFIVGIHSASNFTNTNNYFTSVPKNFMELLTNQEAQQWVSGWRLNADSVLWGGHKVFMVKPEEPFQPVKEATQL

Variants of: B1
Assay: raw area under fraction-flipped curve 0-4 h after induction (AUC4h, not background-subtracted), DNA-recorder readout of cleavage of the substrate (dimensionless); higher = more cleavage of the substrate by the protease variant
Details: temperature: 34 °C; time window: 0-4 h after rhamnose induction
Method: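 In vivo DNA recorder in E. coli TOP10(DE3) ΔrhaA at 34 °C. Each TEVp single-site mutant (parent TEVp 0) is paired with a single-site variant of the 7-mer TEVs (canonical ENLYFQ|S). The substrate sits between flexible linkers in a Bxb1-sfGFP-TEVs-SsrA fusion, so cleavage stabilises Bxb1 and speeds flipping of a recombination array, read by NGS. The value is the raw area under the fraction-flipped curve over 0-4 h after rhamnose induction (AUC4h), with ≥20 reads per time point. It is not background-subtracted; inactive controls average about 0.047.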
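Note: Bxb1 expression induced with 0.2% (w/v) L-rhamnose at OD600 near 0.5, cultures sampled hourly, flipped fraction per protease–substrate barcode pair counted by paired-end Illumina sequencing.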

| Variant | area with substrate ENLAFQS | area with substrate ENLDFQS | area with substrate ENLFFQS | area with substrate ENLGFQS | area with substrate ENLHFQS | area with substrate ENLKFQS | area with substrate ENLMFQS | area with substrate ENLNFQS | area with substrate ENLRFQS | area with substrate ENLSFQS | area with substrate ENLVFQS | area with substrate ENLWFQS | area with substrate ENLCFQS | area with substrate ENLEFQS | area with substrate ENLLFQS | area with substrate ENLPFQS | area with substrate ENLQFQS | area with substrate ENLTFQS | area with substrate ENLIFQS |
| --- | --- | --- | --- | --- | --- | --- | --- | --- | --- | --- | --- | --- | --- | --- | --- | --- | --- | --- | --- |
| MGESLFKGPRDYNPISSSICHLTNESDGHTTSLYGIGFGPFIITNKHLFRRNNGTLVVQSLHGVFKVKDTTTLQQHLVDGRDMIIIRMPKDFPPFPQKLKFREPQREERICLVTTNFQTKSMSSMVSDTSCTFPSGDGIFWKHWIQTKDGQCGSPLVSTRDGFIVGIHSASNFTNTNNYFTSVGKNFMELLTNQEAQQWVSGWRLNADSVLWGGHKVFMVKPEEPFQPVKEATQL [P184G] | 0.059 | 0.0526 | 0.0632 | 0.084 | 0.0681 | 0.066 | 0.0845 | 0.0365 | 0.0601 | 0.0552 | 0.0845 | 0.0523 | – | – | – | – | – | – | – |
| MGESLFKGPRDYNPISSSICHLTNESDGHTTSLYGIGFGPFIITNKHLFRRNNGTLVVQSLHGVFKVKDTTTLQQHLVDGRDMIIIRMPKDFPPFPQKLKFREPQREERICLVTTNFQTKSMSSMVSDTSCTFPSGDGIFWKHWIQTKDGQCGSPLVSTRDGFIVGIHSASNFTNTNNYFTSVWKNFMELLTNQEAQQWVSGWRLNADSVLWGGHKVFMVKPEEPFQPVKEATQL [P184W] | 0.0621 | 0.056 | 0.0729 | 0.0712 | – | 0.0589 | – | 0.0648 | – | 0.0616 | 0.0424 | 0.0672 | 0.0564 | 0.0743 | 0.0635 | 0.0588 | 0.0555 | 0.0716 | – |
| MGESLFKGPRDYNPISSSICHLTNESDGHTTSLYGIGFGPFIITNKHLFRRNNGTLVVQSLHGVFKVKDTTTLQQHLVDGRDMIIIRMPKDFPPFPQKLKFREPQREERICLVTTNFQTKSMSSMVSDTSCTFPSGDGIFWKHWIQTKDGQCGSPLVSTRDGFIVGIHSASNFTNTNNYFTSVSKNFMELLTNQEAQQWVSGWRLNADSVLWGGHKVFMVKPEEPFQPVKEATQL [P184S] | 0.0622 | 0.0609 | 0.0752 | 0.0521 | 0.0591 | 0.0752 | – | 0.0767 | 0.0503 | 0.0563 | 0.0826 | 0.0611 | – | 0.026 | 0.089 | 0.0464 | 0.0654 | – | 0.0517 |
| MGESLFKGPRDYNPISSSICHLTNESDGHTTSLYGIGFGPFIITNKHLFRRNNGTLVVQSLHGVFKVKDTTTLQQHLVDGRDMIIIRMPKDFPPFPQKLKFREPQREERICLVTTNFQTKSMSSMVSDTSCTFPSGDGIFWKHWIQTKDGQCGSPLVSTRDGFIVGIHSASNFTNTNNYFTSVPKNFMELLTNQEAQKWVSGWRLNADSVLWGGHKVFMVKPEEPFQPVKEATQL [Q198K] | 0.0733 | 0.0619 | 0.0854 | – | 0.0769 | 0.078 | – | 0.0691 | 0.0777 | 0.0605 | 0.0782 | – | 0.0683 | 0.07 | 0.117 | 0.0641 | 0.0695 | 0.0633 | 0.0953 |
| MGESLFKGPRDYNPISSSICHLTNESDGHTTSLYGIGFGPFIITNKHLFRRNNGTLVVQSLHGVFKVKDTTTLQQHLVDGRDMIIIRMPKDFPPFPQKLKFREPQREERICLVTTNFQTKSMSSMVSDTSCTFPSGDGIFWKHWIQTKDGQCGSPLVSTRDGFIVGIHSASNFTNTNNYFTSVPKNFMELLENQEAQQWVSGWRLNADSVLWGGHKVFMVKPEEPFQPVKEATQL [T192E] | 0.0608 | – | 0.0665 | – | 0.0754 | 0.0752 | – | 0.0711 | 0.0633 | 0.0551 | – | – | – | – | 0.0512 | 0.0599 | – | – | – |
| MGESLFKGPRDYNPISSSICHLTNESDGHTTSLYGIGFGPFIITNKHLFRRNNGTLVVQSLHGVFKVKDTTTLQQHLVDGRDMIIIRMPKDFPPFPQKLKFREPQREERICLVTTNFQTKSMSSMVSDTSCTFPSGDGIFWKHWIQTKDGQCGSPLVSTRDGFIVGIHSASNFTNTNNYFTSVPKNFMELLINQEAQQWVSGWRLNADSVLWGGHKVFMVKPEEPFQPVKEATQL [T192I] | 0.0606 | 0.0637 | 0.0866 | 0.0605 | 0.0722 | 0.0722 | 0.0743 | 0.0649 | 0.0727 | 0.0591 | 0.0746 | 0.0739 | 0.0774 | 0.0675 | 0.0708 | 0.0607 | 0.0715 | 0.0718 | 0.075 |
| MGESLFKGPRDYNPISSSICHLTNESDGHTTSLYGIGFGPFIITNKHLFRRNNGTLVVQSLHGVFKVKDTTTLQQHLVDGRDMIIIRMPKDFPPFPQKLKFREPQREERICLVTTNFQTKSMSSMVSDTSCTFPSGDGIFWKHWIQTKDGQCGSPLVSTRDGFIVGIHSASNFTNTNNYFTSVPKNFMELLQNQEAQQWVSGWRLNADSVLWGGHKVFMVKPEEPFQPVKEATQL [T192Q] | 0.0685 | 0.0603 | 0.0916 | – | 0.0729 | 0.0716 | 0.0974 | 0.0724 | – | 0.0559 | 0.0882 | 0.0715 | 0.0539 | 0.0719 | 0.076 | 0.0536 | 0.0699 | – | 0.0768 |
| MGESLFKGPRDYNPISSSICHLTNESDGHTTSLYGIGFGPFIITNKHLFRRNNGTLVVQSLHGVFKVKDTTTLQQHLVDGRDMIIIRMPKDFPPFPQKLKFREPQREERICLVTTNFQTKSMSSMVSDTSCTFPSGDGIFWKHWIQTKDGQCGSPLVSTRDGFIVGIHSASNFTNTENYFTSVPKNFMELLTNQEAQQWVSGWRLNADSVLWGGHKVFMVKPEEPFQPVKEATQL [N177E] | 0.0547 | 0.0579 | 0.0734 | 0.0674 | 0.0611 | 0.0759 | 0.0717 | 0.0692 | 0.0623 | 0.0584 | – | 0.0733 | 0.0474 | 0.0699 | 0.0376 | – | 0.0339 | 0.0671 | – |
